Source: PubChem BioAssay AID1159614 (National Center for Advancing Translational Sciences (NCATS), 2016)
About 65 (0.1%) of roughly 45,000 compounds were called active. Calls follow the shape of the dose curve; as a rule, active = well fitted activation curve with a large enough effect; inconclusive = small, poorly fitted or top-dose-only effect; inactive = no such curve, though single readings can be large or run the other way. This is one part of the list.

Molecular target: Galactocerebrosidase (Homo sapiens) (UniProt P54803)
UniProt P54803, sequence (P54803 whole entry, looked up): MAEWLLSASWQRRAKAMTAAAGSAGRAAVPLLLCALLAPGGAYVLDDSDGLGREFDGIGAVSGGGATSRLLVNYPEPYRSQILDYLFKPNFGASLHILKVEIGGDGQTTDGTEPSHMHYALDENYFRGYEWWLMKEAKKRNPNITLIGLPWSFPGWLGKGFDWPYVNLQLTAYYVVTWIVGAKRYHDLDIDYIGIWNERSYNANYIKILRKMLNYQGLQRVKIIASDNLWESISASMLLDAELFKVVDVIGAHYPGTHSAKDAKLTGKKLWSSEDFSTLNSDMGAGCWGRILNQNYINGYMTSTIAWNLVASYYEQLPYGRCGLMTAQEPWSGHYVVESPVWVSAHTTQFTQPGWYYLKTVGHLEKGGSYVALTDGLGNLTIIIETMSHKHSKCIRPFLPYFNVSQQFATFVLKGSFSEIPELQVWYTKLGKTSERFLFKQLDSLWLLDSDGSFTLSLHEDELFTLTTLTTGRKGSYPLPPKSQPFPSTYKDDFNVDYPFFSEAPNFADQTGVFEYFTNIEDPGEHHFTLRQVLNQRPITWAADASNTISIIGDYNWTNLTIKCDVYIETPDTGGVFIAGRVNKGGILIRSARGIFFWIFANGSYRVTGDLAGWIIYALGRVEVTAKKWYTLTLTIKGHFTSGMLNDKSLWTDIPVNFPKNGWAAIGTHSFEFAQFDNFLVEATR
Assay: A Novel Cell-Based Assay to Identify Small Molecules for B -Galactocerebrosidase; also: 0% is about no effect; nearly all actives have a fitted effect of over 65% in size
Details: 145M-Twi-hGALC-G270D cells (Twitcher mouse brain line with human GALC G270D), HMU-beta-Gal fluorescence, 48 h; series mostly up to 57.5 µM; activation: at the top concentration
Method in brief: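 Fluorogenic HMU-b-Gal hydrolysis (0.1 mM final, pH 5.2 citrate-phosphate with 1 mg/mL sodium taurocholate; carbonate stop buffer) measures mutant GALC activity after compound treatment of live 145M-Twi Twitcher brain cells stably carrying human GALC-G270D, with wild-type GALC line alongside; activation sought.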

activation, inactive:
Cc1ccccc1-c1noc(-c2ccc(N3CCOCC3)c([N+](=O)[O-])c2)n1 -18.4%
Cn1c2ccccc2c2cnn(CC(=O)Nc3ccccc3C(F)(F)F)c(=O)c21 0.864%
Cc1ccc(-c2noc(-c3ccccc3NC(=O)C3CC(=O)N(c4ccccc4C)C3)n2)cc1 (configuration not stated) -3.69%
CCn1ccc2c(OCC(=O)NCc3ccc(F)cc3)cccc2c1=O -9.95%
O=C(NCCc1nc2ccccc2n1Cc1ccc(Cl)cc1Cl)c1ccco1 -8.78%
CC(C)Sc1ncc(Cl)c(C(=O)N(Cc2ccc(N(C)C)cc2)C2CCS(=O)(=O)C2)n1 (configuration not stated) -5.39%
CCc1nn(CC(=O)Nc2ccc(N(CC)CC)cc2C)c(=O)c2cc3sccc3n12 -19.9%
N#Cc1ccc(C(=O)Nc2ccc3c(c2)N(C2CCCC2)C(=O)c2ccccc2S3)cc1 -7.85%
Cc1ccc(Cn2c(CN3CCC(C(=O)NCCc4ccccc4)CC3)cc3ccccc32)cc1 -12.6%
Cc1cc(C)c2nc(N(Cc3cccnc3)C(=O)c3cccs3)sc2c1 -8.36%
CCOc1ccc(C2C(C(=O)Nc3ccccc3)=C(C)Nc3nc(SCc4cc(C)ccc4C)nn32)cc1 (configuration not stated) -9.11%
CC(C)Cn1c(=O)c2ccccc2n2c(CCC(=O)NC(C)c3ccccc3)nnc12 (configuration not stated) -17.8%
COc1ccc(CNC(=O)c2cc(-c3ccc(Br)s3)nc3ccccc23)c(OC)c1 -5.54%
Cc1ccc(-n2ncc(C(=O)Nc3ccc4c(c3)OCCO4)c2C2CCN(C(=O)OC(C)(C)C)CC2)cc1C -11.4%
CC1=C(C(=O)NCc2cccc(F)c2)C2(CCCCCC2)OC1=O -4.53%
COc1ccccc1NC(=O)CC1Sc2ccc(C(F)(F)F)cc2NC1=O (configuration not stated) -5.84%
CCOc1ccccc1CNC(=O)Cn1c(=O)c2cccn2c2ccc(F)cc21 -17.3%
COc1ccc(Nc2nc3ccc(C)cc3nc2-n2nc(C)cc2C)cc1Cl -8.87%
COc1ccccc1N1CCN(C(=O)Cn2ncc3c2-c2cc(C)ccc2OC3)CC1 -6.81%
COCCN1CCc2nc(SCC(=O)Nc3ccc(C)c(Cl)c3)[nH]c(=O)c2C1 -11.3%
Cc1ccc(OCCSc2nc3ccccc3n2CC(=O)N2CCOCC2)cc1 -28.3%
CC1=C(C(=O)OCc2ccc(C)cc2)C(c2ccccc2C(F)(F)F)CC(=O)N1 (configuration not stated) 3.38%
CCOc1ccc(C(=O)Nc2ccc3c(c2)CCCN3S(=O)(=O)c2ccc(C)cc2)cc1 -4.21%
CC1CCCCN1Cc1c(O)ccc2c(=O)c(-c3ccc(Cl)cc3)c(C(F)(F)F)oc12 (configuration not stated) 4.04%
COc1ccc(-c2onc(C)c2C)cc1S(=O)(=O)NCc1cccs1 -5.66%
CCOC(=O)c1noc2ncn(CC(=O)Nc3ccc(F)cc3Cl)c(=O)c12 -18.9%
CCOc1ccc(NC(=O)CSc2nnc3scc(-c4ccccc4)n23)cc1 -1.47%
CCOC(=O)c1sc2ncn(CC(=O)Nc3ccc(F)cc3F)c(=O)c2c1C 5%
COC(=O)c1c(NC(=O)c2ccc(Cl)c(Cl)c2)sc2c1CCCC2 -10.2%
O=C(Nc1ccccc1F)c1cnc(N2CCCCC2)c2ccccc12 -0.968%
O=C1CC[C@@H](C(=O)O)N1 -21.9%
CCc1ccccc1NC(=O)c1cc(-c2ccc(Cl)s2)nc2ccccc12 -9.67%
Cc1oc(-c2ccccc2F)nc1Cn1c(SCc2cccc(C(F)(F)F)c2)nc2ccncc21 -21%
COc1ccc(OC)c(CNC(=O)CCCn2c(=O)c3cccn3c3cccnc32)c1 -10.4%
CCOc1ccccc1NC(=O)Cn1c(=O)n(Cc2ccc(OC)cc2)c(=O)c2oc3ccccc3c21 -17.7%
Nc1cc(C(F)(F)F)ccc1S -14.7%
Cc1cccc(-n2c(C)cc(C(=O)C(=O)Nc3nncs3)c2C)c1 -11.4%
Cc1ccc(O)c(NC(=O)CCS(=O)(=O)c2nc(-c3cccs3)cc(C(F)(F)F)n2)c1 -19.9%
Cc1ccc(C(C)C)c(OCC(=O)Nc2cc(-c3nc4ccccc4[nH]3)ccc2C)c1 -16.5%
Cc1cccc(-n2cnc3cc(C(=O)NCc4ccccc4Cl)ccc32)c1 -13.1%
COc1ccc(N(CC(=O)Nc2cc(OC)cc(OC)c2)S(=O)(=O)c2c(C)noc2C)cc1 17.7%
COc1ccccc1-c1nnc(C2CCN(C(=O)c3ccccc3C)CC2)o1 -6.11%
Cc1cc2c(cc1S(=O)(=O)Nc1ccc(C(C)C)cc1)OCCN2C -3.26%
CCOC(=O)CSc1nc2ccc(NC(=O)c3ccc(Cl)cc3)cc2s1 3.51%
COC(=O)c1ccc(NC(=O)C2CCN(c3ncnc4c3nc3n4CCCCC3)CC2)cc1 -0.541%
COc1cccc(-c2nc(CS(=O)(=O)CC(=O)Nc3cccc(C(C)=O)c3)c(C)o2)c1 -18.8%
COc1cc(CN(C(=O)c2ccc(OC(C)C)cc2)c2ccccn2)cc(OC)c1OC -37.4%
COc1ccc(CCNc2ncnc3c2c(-c2ccccc2)cn3-c2ccc(Cl)cc2)cc1OC 9.43%
CCCCc1ccc(C(=O)Nc2ccc3nc(N4CCN(CC)CC4)cc(C)c3c2)cc1 -17.1%
COc1ccc(C)cc1NC(=O)c1cc(S(=O)(=O)N2CCC(C)CC2)ccc1F -8.06%
CCOC(=O)c1ccccc1NC(=O)CSc1nnc(CC)n2c1cc1occc12 -11.6%
Fc1ccc(-c2cc3ncc4c(n3n2)-c2cc(Cl)ccc2OC4)cc1 -15.3%
O=C(O)CNC(=O)c1ccccc1 -6.41%
Cc1cc(Nc2nc3ccccc3c3nnc(C)n23)ccc1Br -2.29%
Cc1cc(C)cc(NC(=O)CSc2c(C(C)C)cnc3c2c(=O)n(C)c(=O)n3C)c1 -14.8%
Cc1cc(C)cc(Nc2cc(C(=O)NC3CCCCC3)c3ccccc3n2)c1 22.9%
Cc1ccc(CNC(=O)CSc2c(C)cnc3c2c(=O)n(C)c(=O)n3C)cc1 -7.06%
CCOC(=O)N1CCc2c(sc3c2c(=O)n(-c2ccc(CC)cc2)c(=O)n3Cc2cccc(Cl)c2)C1 -9.88%
CCC1CN(C(=O)N2CCC(C(=O)NCCc3ccc(OC)c(OC)c3)CC2)c2ccccc2O1 (configuration not stated) -15.4%
Cc1ccc(C)c(N2CCN(C(=O)C3CCC(CNS(=O)(=O)c4cccs4)CC3)CC2)c1 (configuration not stated) -11.4%
CCc1cccc(NC(=O)Cn2c(=O)n(CCCCCC(=O)NCc3ccc(F)cc3)c(=O)c3sccc32)c1 1.9%
Cc1ccc(NC(=O)CN2C(=O)C(c3ccc(F)cc3)=NC23CCCCCC3)c(C)c1 -7.34%
